Paper PMC4081100
The entries are a selection whose mix differs from that of the whole data set. For some assays here: At the low end of the ranking the order means little. The list shows a part of the results. For some assays here: Construct or isoform of the protein are uncertain.

Experiments:
Assay in all cases: universal protein binding microarray (PBM)
Settings in all cases: transcription factors of Arabidopsis thaliana; high values mean tight binding; most listed sequences are background and not binding sites; double strand, one strand shown
GST-ANAC092(1-176) = molecular target: T1, GST-ANAC092(1-176) (UniProt Q9FKA0)
T1 sequence: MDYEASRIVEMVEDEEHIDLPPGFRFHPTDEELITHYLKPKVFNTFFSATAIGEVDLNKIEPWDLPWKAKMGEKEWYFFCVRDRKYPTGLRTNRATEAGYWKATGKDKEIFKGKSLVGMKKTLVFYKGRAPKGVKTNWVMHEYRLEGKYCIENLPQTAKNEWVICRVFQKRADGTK

GST-NTL6(1-168) = GST-NTL6(1-168) (UniProt Q9SCK6)
GST-ANAC019 NAC domain = molecular target: T2, GST-ANAC019 NAC domain (UniProt Q9C932)
T2 sequence: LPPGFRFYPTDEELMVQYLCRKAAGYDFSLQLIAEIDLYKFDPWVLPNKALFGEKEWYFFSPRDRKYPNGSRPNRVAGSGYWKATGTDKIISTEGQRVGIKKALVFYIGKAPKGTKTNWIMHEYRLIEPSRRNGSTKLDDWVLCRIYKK

GST-ANAC055(1-171) = molecular target: T3, GST-ANAC055(1-171) (UniProt Q9LDY8)
T3 sequence: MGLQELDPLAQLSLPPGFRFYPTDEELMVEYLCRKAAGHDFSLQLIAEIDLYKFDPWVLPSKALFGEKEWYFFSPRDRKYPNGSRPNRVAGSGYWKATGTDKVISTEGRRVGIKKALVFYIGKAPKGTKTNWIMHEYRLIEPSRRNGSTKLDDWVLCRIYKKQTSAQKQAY

GST-ATAF1 NAC domain = molecular target: T4, GST-ATAF1 NAC domain (UniProt Q39013)
T4 sequence: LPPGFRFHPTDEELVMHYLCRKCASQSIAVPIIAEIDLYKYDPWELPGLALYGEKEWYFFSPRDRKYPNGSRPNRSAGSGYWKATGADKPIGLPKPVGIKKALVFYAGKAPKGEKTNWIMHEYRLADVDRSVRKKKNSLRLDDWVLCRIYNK

GST-NAP(1-166) = molecular target: T5, GST-NAP(1-166) (UniProt O49255)
T5 sequence: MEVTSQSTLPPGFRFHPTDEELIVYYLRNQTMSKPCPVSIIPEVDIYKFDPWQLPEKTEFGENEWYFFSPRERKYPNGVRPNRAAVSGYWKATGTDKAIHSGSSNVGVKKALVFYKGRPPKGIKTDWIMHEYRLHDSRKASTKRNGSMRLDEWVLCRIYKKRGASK

GST-NST2(1-184) = molecular target: T6, GST-NST2(1-184) (UniProt Q9M274)
T6 sequence: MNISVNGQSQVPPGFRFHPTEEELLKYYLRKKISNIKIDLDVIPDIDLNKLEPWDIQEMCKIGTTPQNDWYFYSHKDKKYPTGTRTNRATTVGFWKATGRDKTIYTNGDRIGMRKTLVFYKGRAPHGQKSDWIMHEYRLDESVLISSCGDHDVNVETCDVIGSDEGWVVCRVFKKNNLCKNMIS

GST-NTL8 NAC domain = molecular target: T7, GST-NTL8 NAC domain (UniProt Q9XIN7)
T7 sequence: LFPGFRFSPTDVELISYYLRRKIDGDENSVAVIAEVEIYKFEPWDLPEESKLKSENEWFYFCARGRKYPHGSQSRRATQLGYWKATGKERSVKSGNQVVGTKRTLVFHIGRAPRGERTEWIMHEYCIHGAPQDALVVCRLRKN

GST-SND1(1-203) = molecular target: T8, GST-SND1(1-203) (UniProt Q9LPI7)
T8 sequence: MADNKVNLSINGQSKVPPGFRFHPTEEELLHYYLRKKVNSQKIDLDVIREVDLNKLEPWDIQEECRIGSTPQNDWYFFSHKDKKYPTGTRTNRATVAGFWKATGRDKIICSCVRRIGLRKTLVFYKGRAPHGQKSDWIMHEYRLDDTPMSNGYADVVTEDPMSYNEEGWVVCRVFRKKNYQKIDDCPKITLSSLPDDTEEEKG

GST-VND3 NAC domain = molecular target: T9, GST-VND3 NAC domain (UniProt Q9FH59)
T9 sequence: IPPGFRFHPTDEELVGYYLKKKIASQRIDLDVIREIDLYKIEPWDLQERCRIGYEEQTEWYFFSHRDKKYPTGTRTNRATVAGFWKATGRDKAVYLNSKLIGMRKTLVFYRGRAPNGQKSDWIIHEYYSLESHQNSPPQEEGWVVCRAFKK

GST-VND7 NAC domain = molecular target: T10, GST-VND7 NAC domain (UniProt Q9C8W9)
T10 sequence: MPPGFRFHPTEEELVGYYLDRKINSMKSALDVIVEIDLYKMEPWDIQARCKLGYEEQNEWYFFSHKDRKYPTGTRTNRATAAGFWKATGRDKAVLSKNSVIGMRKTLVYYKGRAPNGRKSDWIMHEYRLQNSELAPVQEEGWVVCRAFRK

[1] = molecular target: T11, GST-VOZ2 (Arabidopsis thaliana) (UniProt Q9SLB9)
T11 sequence: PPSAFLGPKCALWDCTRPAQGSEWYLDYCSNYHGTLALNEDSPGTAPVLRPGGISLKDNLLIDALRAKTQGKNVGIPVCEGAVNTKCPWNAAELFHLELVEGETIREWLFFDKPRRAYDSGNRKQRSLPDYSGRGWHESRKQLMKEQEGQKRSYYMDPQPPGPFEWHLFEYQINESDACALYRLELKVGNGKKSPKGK

[2] = molecular target: T12, GST-ANAC092(1-285) full length (UniProt Q9FKA0)
T12 sequence: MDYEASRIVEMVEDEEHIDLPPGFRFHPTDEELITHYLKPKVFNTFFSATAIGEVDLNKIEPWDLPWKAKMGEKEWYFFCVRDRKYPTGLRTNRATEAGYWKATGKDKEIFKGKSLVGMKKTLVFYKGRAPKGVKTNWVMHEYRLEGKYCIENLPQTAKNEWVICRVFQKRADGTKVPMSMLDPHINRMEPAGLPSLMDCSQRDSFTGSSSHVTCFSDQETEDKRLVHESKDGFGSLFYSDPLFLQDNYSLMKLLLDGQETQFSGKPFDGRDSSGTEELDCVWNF

Sequence	binding signal (GST-ANAC092(1-176)) [E-score]	binding signal (GST-NTL6(1-168)) [E-score]	binding signal (GST-ANAC019 NAC domain) [E-score]	binding signal (GST-ANAC055(1-171)) [E-score]	binding signal (GST-ATAF1 NAC domain) [E-score]	binding signal (GST-NAP(1-166)) [E-score]	binding signal (GST-NST2(1-184)) [E-score]	binding signal (GST-NTL8 NAC domain) [E-score]	binding signal (GST-SND1(1-203)) [E-score]	binding signal (GST-VND3 NAC domain) [E-score]	binding signal (GST-VND7 NAC domain) [E-score]	binding signal [1] [E-score]	binding signal [2] [E-score]
CAAGTCAA	0.0929	-0.0534	0.0429	-0.0108	0.0933	-0.0516	0.0486	-0.034	0.0488	0.0301	0.0166	0.0228	
AAGACCAG	-0.0526	-0.119	-0.043	-0.126	-0.126	-0.174	-0.014	-0.131	-0.0962	-0.179	-0.143	-0.0299	-0.242
GGAGTCAA	0.00541	0.00373	-0.00155	0.0115	-0.0113	-0.103	-0.0995	-0.0366	-0.00492	-0.0255	-0.075	-0.0808	-0.108
GATTTGAC	-0.159	-0.068	-0.0568	0.00328		0.0457	-0.122	-0.0952	-0.127	-0.016	0.0205	-0.00725	-0.152
GGTCTTCA	-0.0457	-0.0146	-0.0631	-0.0371	-0.115	0.0664	0.0297	-0.0874	-0.0959	-0.118	-0.0256	-0.168	-0.117
ACGTTGAC	0.0221	-0.0843	-0.0738	-0.0189	0.0168		0.0247	-0.109	0.127	-0.00589	-0.0451	-0.0473	
GTGTCAAC	0.0146	-0.172	0.0933	-0.0631	-0.0748		-0.141	-0.16	-0.0829	-0.0347	-0.0505	-0.0236	0.026
GTCAATGA	-0.0541	0.0646	-0.0304	-0.0561	-0.0238	-0.0799	-0.00768	-0.0366	0.0462	0.0462	-0.0995	0.0283	0.0425
GGTCAATA	-0.104	0.0146	-0.0599	-0.0117	-0.1		-0.114	-0.0103	-0.0367	-0.0495	-0.00593	0.0933	
GGTCAGAA	-0.0236	-0.11	0.0376	-0.171	-0.0116	-0.204	-0.126	0.0234	-0.0821	-0.0274	-0.0142	0.000875	-0.0844
CGGTCAAG	-0.0274	-0.0513	-0.0324	-0.152	-0.276	-0.0583	-0.0889	-0.0426	-0.0925	-0.204	-0.171	-0.0724	-0.0599
CGGTCAAA	0.00646	-0.0801	-0.0604	-0.0579	-0.0821	-0.0233		0.0552	0.0459	-0.0686	-0.0841	0.0608	-0.0279
CGATTGAC	-0.0222	-0.00936	-0.0554	-0.0646	-0.0509	-0.00541	-0.0299	-0.0778	-0.0246	-0.118	-0.0755	-0.0683	-0.0136
